# Inconclusive means that the source gave no clear call. Such entries were picked first, then a sample of the others. For some of these results: A potency beside an inconclusive call is a rough fit, not a confirmed value. Active and inactive are the calls of the source. Unless noted, the call rests on the fitted dose curve; in most records, active means well fitted curve in the direction sought with a large enough effect in the repeat runs; inconclusive means weak or mixed curves; inactive means no such curve, though single readings can be large; an effect the other way counts as inactive or inconclusive.
# Columns and labels:
# [1] = qHTS assay for small molecule agonists of the p53 signaling pathway (AID 651631; calls by dose curve; further: nearly all actives have a fitted effect of over 15% in size; further: potency means the concentration at half of the fitted maximal effect; on activation: on the % scale 0 is the no-effect control and ±100 the full control effect); conditions: HCT-116 p53RE-bla reporter, beta-lactamase FRET ratio, 16 h; activation: at 73.3 µM (top of the series) unless noted
# Summary of the method: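 Quantitative high-throughput format: 4,000 p53RE-bla HCT-116 cells/well, 5 h pre-incubation, 16 h compound exposure at 37 °C, 2 h room-temperature substrate step, fluorescence intensity measured.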
# [2] = qHTS assay for small molecule disruptors of the mitochondrial membrane potential (AID 720635); conditions: HepG2 mitochondrial membrane potential, Mito-MPS dye ratio; ratio activity, negative = MMP loss: at 83.2 µM (top of the series) unless noted; further: potency means the concentration at half of the fitted maximal effect; on ratio activity, negative = MMP loss: on the % scale 0 is the no-effect control and ±100 the full control effect
# Summary of the method: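 Mitochondrial membrane potential tracked with Mito-MPS dye, red aggregates (ex 540/em 590 nm) against green monomers (ex 490/em 535 nm). Compound treatment 1 hr at 37C, dye 30 min in HepG2.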
# [3] = qHTS assay for small molecules that induce genotoxicity in human embryonic kidney cells expressing luciferase-tagged ATAD5 (AID 651632); further: nearly all actives have a fitted effect of over 15% in size; further: potency means the concentration at half of the fitted maximal effect; on activation: on the % scale 0 is the no-effect control and ±100 the full control effect
# Summary of the method: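 A rise in luciferase signal from ATAD5-tagged HEK293T cells marks genetic stress. Cells were exposed to compounds for 16 hr at 37C, 5% CO2, then luciferase was quantified after a 30 min room-temperature incubation with Amplite.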
# [4] = qHTS assay for small molecule disruptors of the mitochondrial membrane potential - cell viability (AID 720634; calls by dose curve; further: potency means the concentration at half of the fitted maximal effect; nearly all actives have a fitted effect of over 20% in size)
# Summary of the method: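 Cytotoxicity was quantified from ATP content by CellTiter-Glo luminescence in the same wells as the MMP dye read-out. HepG2 (2,000 cells/well) were plated overnight and exposed to compounds for 1 hr at 37 C.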
# [5] = qHTS assay to test for compound auto fluorescence at 590 nm (red) in HEK293 cells (AID 720679); conditions: red autofluorescence 540/590 nm; at 91.3 µM (top of the series); further: on the % scale 0 is the no-effect control and ±100 the full control effect
# Summary of the method: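 HEK293 cells (2,000/well, medium with 10% dialyzed FBS) attached for 4-5 hr at 37C, received 23 nL compound and were incubated overnight at 37C, 5% CO2. Red fluorescence was then read at 540/590nm Ex/Em, referenced to Rose Bengal sodium.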
# [6] = qHTS assay to test for compound auto fluorescence at 460 nm (blue) in HEK293 cells (AID 720678); further: potency means the concentration at half of the fitted maximal effect
# Summary of the method: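 HEK293 cells (2,000 per well, medium with 10% dialyzed FBS) attached for 4-5 hr at 37C, then received compound and stood overnight at 37C, 5% CO2. Blue fluorescence was read at Ex/Em 405/460 nm and expressed relative to triamterene.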
# Tags describe the fitted curve by direction and shape or compound fluorescence and quenching.
smiles,measurement,setting,value
CC(C)OC(=O)CCCCC(=O)OC(C)C,Potency,[1],inconclusive: 61.3 µM [activator]
same,Potency,[2],active: 54.6 µM
CC(C)(C)NCCO,Potency,[1],"inconclusive: 30.6 µM [rising, partial curve, poor fit]"
same,"ratio activity, negative = MMP loss",[2],inconclusive: 5.97%
c1cc(CN2CCCCC2)cc(OCCCNc2nc3ccccc3s2)c1,Potency,[1],"inconclusive: 33.5 µM [rising, partial curve]"
same,"ratio activity, negative = MMP loss",[2],inconclusive: 13.9%
NC[C@H]1O[C@H](O[C@H]2[C@H](O)[C@@H](O[C@H]3O[C@H](CO)[C@@H](O)[C@H](N)[C@H]3O)[C@H](N)C[C@@H]2N)[C@H](O)[C@@H](O)[C@@H]1O,activation,[1],inconclusive: 7.27% [at 8.3 µM]
same,"ratio activity, negative = MMP loss",[2],inconclusive: 18.1% [at 39.1 µM]
O=C(NCC1CCCCN1)c1cc(OCC(F)(F)F)ccc1OCC(F)(F)F (stereo unspecified),activation,[1],inconclusive: 13.5%
same,Potency,[2],inactive
O=C1NC(=O)C2CC=CCC12 (stereo unspecified),Potency,[1],inactive
same,Potency,[2],"inconclusive: 27.3 µM [activator, partial curve, poor fit]"
Oc1ccccc1C=NCc1ccccc1,Potency,[1],inactive
same,Potency,[2],active: 21.1 µM
O=C(c1ccc(Cl)cc1)c1ccc(Cl)cc1,Potency,[1],inactive
same,"ratio activity, negative = MMP loss",[2],inconclusive: -12.4%
CC(=O)OCC(=O)[C@@]1(O)CC[C@H]2[C@@H]3CCC4=CC(=O)C=C[C@]4(C)[C@@]3(F)[C@@H](O)C[C@@]21C,Potency,[1],"inconclusive: 2.85 µM [activator, single point]"
same,"ratio activity, negative = MMP loss",[2],inconclusive: 18% [at 39.1 µM]
C=CCSSCCC,Potency,[1],inactive
same,Potency,[2],inactive
OC(CCCN1CCCCC1)(c1ccccc1)c1ccccc1,Potency,[1],"inconclusive: 13.3 µM [activator, single point]"
same,"ratio activity, negative = MMP loss",[2],inconclusive: 33.9%
c1ccc(OCc2ccc(CCCN3CCOCC3)cc2)cc1,Potency,[1],"inconclusive: 13.3 µM [falling, single point]"
same,"ratio activity, negative = MMP loss",[2],inconclusive: 12.9%
CCCCNC(=O)NCCCC,activation,[1],inconclusive: 1.42%
same,"ratio activity, negative = MMP loss",[2],inconclusive: 16.6%
C=CCCCCCCCC,Potency,[1],inactive
same,Potency,[2],"inconclusive: 0.0774 µM [activator, full curve, poor fit]"
COC(=O)c1ccc(I)cc1S(=O)(=O)NC(=O)Nc1nc(C)nc(OC)n1,Potency,[1],inactive
same,"ratio activity, negative = MMP loss",[2],inconclusive: -9.88%
O=C(CCN1CCN2CCCC2C1)N1c2ccccc2Sc2ccc(Cl)cc21 (stereo unspecified),Potency,[1],"inconclusive: 16.8 µM [rising, partial curve, poor fit]"
same,Potency,[2],"inconclusive: 27.8 µM [activator, partial curve]"
CCCCCCCCCCCCCCCC/C=C/C1CC(=O)OC1=O (stereo unspecified),Potency,[1],inactive
same,Potency,[2],"inconclusive: 5.93 µM [activator, partial curve]"
C[C@@H](N)C(=O)O,Potency,[1],inactive
same,"ratio activity, negative = MMP loss",[2],inconclusive: -3.48%
CC1=CCC(O)(C(C)C)CC1 (stereo unspecified),Potency,[1],inactive
same,"ratio activity, negative = MMP loss",[2],inconclusive: 12.2%
C=CC(=O)OCC[N+](C)(C)C,Potency,[1],inactive
same,"ratio activity, negative = MMP loss",[2],inconclusive: 39.6% [at 95.3 µM]
CCCNCC(O)COc1ccccc1C(=O)CCc1ccccc1 (stereo unspecified),Potency,[1],"inconclusive: 16.8 µM [rising, partial curve]"
same,Potency,[2],"inconclusive: 23.7 µM [activator, partial curve]"
O=C(Nc1ccccc1)c1cc([N+](=O)[O-])ccc1Cl,Potency,[1],"inconclusive: 27.3 µM [activator, partial curve, poor fit]"
same,Potency,[2],"inconclusive: 54.5 µM [cytotoxic, partial curve, poor fit]"
CCCC(=O)c1ccccc1,Potency,[1],inactive
same,Potency,[2],"inconclusive: 6.86 µM [activator, full curve]"
[O-][N+](=Nc1ccccc1)c1ccccc1,Potency,[3],"inconclusive: 16.8 µM [activator, partial curve, poor fit]"
same,Potency,[4],"inconclusive: 54.5 µM [cytotoxic, partial curve, poor fit]"
same,Potency,[2],inconclusive: 68.6 µM [inhibitor]
same,"ratio activity, negative = MMP loss",[2],inconclusive: 19.4%
O=C(NN1CCCC1)NS(=O)(=O)c1ccc(Cl)cc1,Potency,[3],inactive
CC(C)(N)C#N,Potency,[3],inactive
same,"ratio activity, negative = MMP loss",[2],inconclusive: 36.5% [at 95.3 µM]
Cc1ccc(C(C)NC(=O)[C@@H](NC(=O)OC(C)C)C(C)C)cc1 (stereo partly specified),Potency,[1],inactive
same,"fluorescence, % of fluorescent control",[5],inactive: -0.0165%
O=C(O)C(Cc1cc(I)c(O)c(I)c1)c1ccccc1 (stereo unspecified),Potency,[1],"inconclusive: 29.8 µM [falling, partial curve]"
same,Potency,[6],"inconclusive: 35.5 µM [fluorescent, single point]"
CCCCCCCCCCOS(=O)(=O)O,Potency,[1],"inconclusive: 54.3 µM [falling, partial curve, poor fit]"
same,Potency,[2],"inconclusive: 54.3 µM [fluorescent, partial curve, poor fit]"
c1ccc2cnncc2c1,Potency,[1],inactive
same,Potency,[2],inactive
